Entries after “also recorded” stand apart in the source; their conditions may differ.
How the values were obtained:
tumor cells = settings: cited from earlier work
red blood cell = settings: cited from earlier work
[1] = biological target: interaction between CD47 and SIRPα (Homo sapiens, UniProt Q08722); settings: cited from earlier work
human erythrocytes = settings: cited from earlier work
Jurkat cells [2] = test: Macrophage / CFSE-labeled Jurkat co-culture, Live/Dead staining and phagocytosis by flow cytometry; type: cell-based, human; settings: macrophages:Jurkat 1:2, 2 hours; FIG. 1 and 2
Description: Jurkat cells were utilized as the target cells due to their expression of CD47 on their surface.
Non-phagocytosed Jurkat cells (CFSE+CD14-) were isolated by flow-cytometry and analyzed for Live/Dead staining using a Live/Dead Violet kit (Life Technologies). […] Without being bound by theory, it is believed that 2.3D11-induced triggering of cell death pathways in target cells may enhance target cell uptake by macrophages.

Jurkat cells [3] = test: Jurkat cell death on immobilized antibody after pan-caspase inhibitor Z-VAD-FMK pre-treatment, Annexin V/PI; type: cell-based, human; settings: Z-VAD-FMK 100, 10 or 1 μM pre-treatment 1 hour, 24 hours, FIG. 3A
Experimental: Jurkat cells were utilized to determine whether the induction of cell death by an anti-CD47 antibody was caspase and/or PLCγ1 dependent.
To assay whether anti-CD47 induced cell death was caspase dependent or independent Jurkat cells were pre-treated for 1 hour at 37° C., with DMSO (control), 100 μM pan-caspase inhibitor Z-VAD-FMK, 10 μM pan-caspase inhibitor Z-VAD-FMK, or 1 μM pan-caspase inhibitor Z-VAD-FMK. […] Cell death was evaluated by Annexin V+/Propidium Iodide (PI) staining via flow cytometry.

[4] = system: wildtype Jurkat cells or PLCγ1-deficient Jurkat cells (J.Gamma1 cells); test: Cell death of wildtype vs PLCγ1-deficient Jurkat cells (J.Gamma1) on immobilized antibody, Annexin V; type: cell-based, human; settings: dose titration of immobilized antibody, overnight; FIG. 3B
Experimental: Jurkat cells were utilized to determine whether the induction of cell death by an anti-CD47 antibody was caspase and/or PLCγ1 dependent. […] To assay whether anti-CD47 induced cell death was PLCγ1 dependent or independent wildtype Jurkat cells or PLCγ1-deficient Jurkat cells (J.Gamma1 cells) were utilized. […] Cell death was assessed by Annexin V surface staining by flow cytometry and the percent of events staining positive for Annexin V is graphed as a function of antibody concentration in FIG. 3B.

Ri-1 tumors = test: Ri-1 human B cell lymphoma (DLBCL) subcutaneous xenograft, tumor volume; type: in vivo, CB.17 SCID mice; settings: FIG. 4
Experimental: The Ri-1 cell line is a human B cell lymphoma line that represents the ABC-subtype of diffuse large cell B cell lymphoma (DLBCL) and harbors a BCL-2 amplification. ABT-199, also known as Venclexta™ or Venetoclax, is an oral BCL-2 inhibitor, and was used as the cell death-inducing agent.
Briefly, 1×10^7 Ri-1 cells were injected subcutaneously into the right flank of CB.17 SCID mice in a 1:1 mixture of RPMI and Matrigel. Tumors were allowed to grow until they were 200-300 mm^3.

B1: 2.3D11: anti-CD47 monoclonal antibody comprising a heavy chain and light chain as set forth in SEQ ID NOs: 13 and 16 (human IgG4, kappa) (antibody)
heavy: QVQLQESGPGLVKPSGTLSLTCAVSGVSIRSINWWNWVRQPPGKGLEWIGEIYHSGSTNYNPSLKSRVTISVDKSKNQFSLKLNSVTAADTAVYYCARDGGIAVTDYYYYGLDVWGQGTTVTVSSASTKGPSVFPLAPCSRSTSESTAALGCLVKDYFPEPVTVSWNSGALTSGVHTFPAVLQSSGLYSLSSVVTVPSSSLGTKTYTCNVDHKPSNTKVDKRV[left out - human IgG4 Fc]
light: EIVLTQSPATLSLSPGERATLSCRASESVSSNLAWYQQKPGQAPRLLIYGAFNRATGIPARFSGSGSGTDFTLTISSLEPEDFAVYYCQQRSDWFTFGGGTKVEIKTVAAPSVFIFPPSDEQLKSGTASVVCLLNNFYPREAKVQWKVDNALQSGNSQESVTEQDSKDSTYSLSSTLTLSKADYEKHKVYACEVTHQGLSSPVTKSFNRGEC
modifications: Synthetic 2.3D11 heavy chain; Synthetic 2.3D11 light chain
For B1, the “phagocytosis of tumor cells” value (tumor cells) is given as “enhance phagocytosis”, the “red blood cell phagocytosis” value (red blood cell) is given as “not induce” and the “inhibition of the interaction between CD47 and SIRPα” value [1] is given as “potently inhibit”. For the same molecule, the hemagglutination (human erythrocytes) was “not induce hemagglutination”, the “death of CD47 expressing cells (dead non-phagocytosed and phagocytosed Jurkat cells)” value (Jurkat cells [2]) was “induces death of CD47 expressing cells via phagocytosis and non-phagocytosis mechanisms” and the “caspase dependence of 2.3D11-mediated cell death (effect of pan-caspase inhibitor Z-VAD-FMK)” value (Jurkat cells [3]) was “negligible effect; also recorded: caspase independent”. The “PLCγ1 dependence of 2.3D11-induced cell death” value [4] was “partially dependent on PLCγ1 expression”, the single-agent anti-tumor activity (Ri-1 tumors; 2.3D11 100 μg/mouse days 0, 3, 7, ABT-199 25 mg/kg days 0-4) was “potent single-agent anti-tumor activity” and the tumor re-growth (Ri-1 tumors; single agents as above, combination: 2.3D11 100 μg/mouse day 0, then oral ABT-199 25 mg/kg days 3, 4, 5) was “tumors re-grew”.
